Results reported in PubChem BioAssay AID624173 (National Center for Advancing Translational Sciences (NCATS), 2012).
Values joined by “and” are separate entries in the source; they are usually repeats but may differ in a detail not shown here. Identical values can stand only once. Among all 410,000 compounds or so, about 490 (0.12%) were called active. The inconclusive results got no clear call from the source; some entries with a clear call stand among them for comparison. The call rests on the fitted dose curve; in most records, active means well fitted inhibition curve with a large enough effect; inconclusive means small, poorly fitted or top-dose-only effect; inactive means flat fitted curve, though single readings scatter. Potencies of inconclusive entries are doubtful fits and often do not repeat.

Target: pyruvate kinase (Trypanosoma brucei) (UniProt Q57TT1)
Assay: qHTS of Trypanosoma Brucei Inhibitors; further: nearly all actives have a fitted effect of over 50% in size
Conditions: TbPYK enzyme, Kinase-Glo Plus ATP luminescence, 45 min; series mostly up to 76.8 µM
Method in brief: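 Luminescent Kinase-Glo Plus end-point after 45 min room-temperature reaction of T. brucei pyruvate kinase started with 130 uM ADP (final). Buffer TEA 50 mM pH 7.2 with KCl, MgCl2, BSA, Tween-20; titration-based qHTS with fitted concentration-effect curves.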
Potency means the concentration at half of the fitted maximal effect; tags describe the fitted curve by direction and shape.

Row | Structure (SMILES) | Potency
1 | CCOc1ccc2nc(N3CCC(C(=O)N4CCN(C5CCCCC5)CC4)CC3)sc2c1 | inactive
2 | O=C(CSc1nnc2ccccn12)N1CCOCC1 | inactive
3 | CC(CNC(=O)c1cc2ccccn2n1)c1ccccc1 (configuration not stated) | inactive
4 | CCCC(=O)N(c1ccc2oc(=O)sc2c1)S(=O)(=O)c1ccccc1 | inconclusive: 14.1 µM [inhibitor, partial curve]
5 | COc1ccc(C(=O)Oc2ccc(F)cc2C(=O)/C=C/c2ccc(OC)c(OC)c2)cc1 | inactive
6 | CC(c1ccc(F)cc1)n1c(-c2cccs2)n[nH]c1=S (configuration not stated) | active: 7.08 µM
7 | Cc1cccc(C(=O)Nc2ccc3c(c2)nc(C)n3C)c1 | inactive
8 | CCN(C(=O)C(C)N1C(=O)/C(=C/c2ccco2)SC1=S)C1CCS(=O)(=O)C1 (configuration not stated) | inconclusive: 17.8 µM [inhibitor, partial curve]
9 | CCNC(=O)N1C(=O)C2(OCCO2)c2ccccc21 | inactive
10 | Cc1cc(-c2nnc(SCc3ccccn3)o2)no1 | inactive
11 | S=P(c1ccc(N2CCOCC2)cc1N1CCOCC1)(N1CCOCC1)N1CCOCC1 | inconclusive: 2.24 µM [inhibitor, partial curve, poor fit]
12 | COCc1cc(=O)n2[nH]c(-c3ccc(C)cc3)cc2n1 | inactive
13 | CN1CCc2c(sc3c2c(=O)n(-c2ccccc2)c2n[nH]c(=S)n32)C1 | inconclusive: 35.5 µM [inhibitor, partial curve, poor fit]
14 | COCCCNC(=O)C(C)N1c2cccc3cccc(c23)S1(=O)=O (configuration not stated) | inconclusive: 35.5 µM [inhibitor, single point]
15 | CCCn1c(C(C)NS(=O)(=O)c2ccccc2)n[nH]c1=S (configuration not stated) | inconclusive: 44.7 µM [inhibitor, single point]
16 | COc1ccc(S(=O)(=O)NCCSCc2ccco2)cc1 | inactive
17 | O=C(/C=C/Nc1ccccc1F)c1cccs1 | inconclusive: 39.8 µM [inhibitor, partial curve, poor fit]
18 | Cc1nc(-c2ccccc2)sc1C(=O)Nc1ccccc1F | inactive
19 | O=C(O)CC(Cn1[nH]nnc1=S)c1ccccc1 (configuration not stated) | inconclusive: 31.6 µM [inhibitor, single point]
20 | COc1ccc(/C=N/Nc2nc(C(=O)O)cs2)cc1 | inconclusive: 50.1 µM [inhibitor, partial curve, poor fit]
21 | CN1C(=O)C(=Cc2ccccc2Oc2ccc(Cl)c(F)c2)C(=O)N(C)C1=O | inconclusive: 28.2 µM [inhibitor, partial curve]
22 | COc1cc2c(cc1OC)C(c1ccc(-c3ccccc3Cl)o1)=NCC2 | inconclusive: 35.5 µM [inhibitor, partial curve, poor fit]
23 | C=CCn1c(-c2cccnc2)n[nH]c1=S | inconclusive: 11.2 µM [inhibitor, partial curve, poor fit]
24 | OCC1(Cc2ccccc2)CCN(Cc2cnc(-c3cccc4ccccc34)nc2)CC1 | inactive

Row | Structure (SMILES) | Potency
25 | Cc1ccccc1N=Nc1ccc(O)c2ncccc12 | inactive
26 | O=[N+]([O-])c1ccccc1/C=C/C=N/n1c(-c2ccc(Cl)cc2)n[nH]c1=S | inconclusive: 3.55 µM [inhibitor, partial curve, poor fit]
27 | COc1ccc(-c2csc(N3C(=O)C4C5c6ccccc6C(c6ccccc65)C4C3=O)n2)cc1 (configuration not stated) | inactive
28 | CCOC(=O)c1[nH]c(C)c(C(=O)NCCc2ccccc2)c1C | inactive
29 | O=C(c1cnn2c(C(F)(F)F)cc(-c3ccco3)nc12)N1CCCCCC1 | inactive
30 | CCC(C)NC(=O)CSc1nc2ccsc2c(=O)n1NC(=O)c1ccccc1 (configuration not stated) | inactive
31 | O=C(NCc1ccc(F)cc1Cl)c1ccc(CSCc2ccccc2Cl)o1 | inactive
32 | O=C(NC(=S)N1CCN(Cc2ccccc2)CC1)c1ccccc1 | inconclusive: 44.7 µM [inhibitor, single point]
33 | C=CCN1C(=O)/C(=c2\sc3nc(=O)c(Cc4ccccc4)nn3c2=O)c2ccccc21 | inconclusive: 14.1 µM [inhibitor, partial curve]
34 | COc1ccc(-c2csc(NC(=O)CSc3n[nH]c(N)n3)n2)cc1 | inconclusive: 12.6 µM [inhibitor, partial curve, poor fit]
35 | Cc1ccc(Sc2cc(C(=O)NCCN(C)C)c3ccccc3n2)cc1 | inactive
36 | Cn1nnnc1Sc1ncnc2scc(-c3ccccc3C(F)(F)F)c12 | inconclusive: 35.5 µM [inhibitor, partial curve]
37 | Cc1ccc(C)c(C(=O)CSc2n[nH]c(C)n2)c1 | inconclusive: 35.5 µM [inhibitor, single point]
38 | Cc1ccc(-c2nc(C(=O)O)cs2)cc1 | inactive
39 | O=C1C=C(NCCc2cc(Br)c(O)c(Br)c2)C(=O)c2ncccc21 | inconclusive: 28.2 µM [inhibitor, partial curve, poor fit]
40 | CCOc1ccc(-n2cc(-c3ccc(OC)c(OC)c3)[nH]c2=S)cc1 | active: 1.12 µM
41 | O=C(NCc1ccco1)c1cccc(NC(=O)c2ccco2)c1 | inconclusive: 0.794 µM [inhibitor, full curve, poor fit]
42 | CC[C@@H]1[C@H]2CCCC(=O)N3CC[C@@H](C[C@@H]1OC(=O)NCc1ccccc1)[C@@H]23 | inconclusive: 50.1 µM [inhibitor, single point]
43 | S=c1[nH]nc(COc2ccc(Cl)cc2)n1-c1ccc(Cl)cc1 | inconclusive: 7.94 µM [inhibitor, partial curve]
44 | N#Cc1c(NC(=O)c2ccc(Cn3cc(Br)cn3)o2)sc2c1CCCCC2 | inactive
45 | O=c1c2c(nc3n1CCCCC3)sc1c(O)c(Br)ccc12 | inconclusive: 50.1 µM [inhibitor, single point]
46 | CC(=S)/C=C1\Sc2ccccc2N1C | inconclusive: 31.6 µM [inhibitor, partial curve]
47 | CC#C[C@]1(O)CC[C@H]2[C@@H]3CCC4=CC(=O)CCC4=C3[C@@H](c3ccc(N(C)C)cc3)C[C@@]21C | inconclusive: 28.2 µM [inhibitor, partial curve, poor fit] and inconclusive: 10 µM [inhibitor, partial curve]
